In all, about 220,000 compounds went through this assay and about 16,000 (7.3%) were called active. The inconclusive results got no clear call from the source; some entries with a clear call stand among them for comparison. The call rests on the fitted dose curve; in most records, active means well fitted inhibition curve with a large enough effect (not every such curve was filed as active); inconclusive means small, poorly fitted or top-dose-only effect, or another doubt; inactive means no such curve, though single readings can be large or run the other way. No potency is given beside an inconclusive call; the fits are too rough.
Each compound was assayed against Aldehyde dehydrogenase 1A1 (Homo sapiens) (UniProt P00352) (assay: qHTS Assay for Inhibitors of Aldehyde Dehydrogenase 1 (ALDH1A1)). Settings: Purified ALDH1A1, NADH fluorescence, propionaldehyde substrate; series mostly up to 75.3 µM; activity, negative = inhibition: at the top concentration.
Potency means the concentration at half of the fitted maximal effect; tags describe the fitted curve by direction and shape.
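Wherever activity, negative = inhibition is given: plate controls were no enzyme wells and a reference inhibitor.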

UniProt P00352, sequence (P00352 whole entry, looked up): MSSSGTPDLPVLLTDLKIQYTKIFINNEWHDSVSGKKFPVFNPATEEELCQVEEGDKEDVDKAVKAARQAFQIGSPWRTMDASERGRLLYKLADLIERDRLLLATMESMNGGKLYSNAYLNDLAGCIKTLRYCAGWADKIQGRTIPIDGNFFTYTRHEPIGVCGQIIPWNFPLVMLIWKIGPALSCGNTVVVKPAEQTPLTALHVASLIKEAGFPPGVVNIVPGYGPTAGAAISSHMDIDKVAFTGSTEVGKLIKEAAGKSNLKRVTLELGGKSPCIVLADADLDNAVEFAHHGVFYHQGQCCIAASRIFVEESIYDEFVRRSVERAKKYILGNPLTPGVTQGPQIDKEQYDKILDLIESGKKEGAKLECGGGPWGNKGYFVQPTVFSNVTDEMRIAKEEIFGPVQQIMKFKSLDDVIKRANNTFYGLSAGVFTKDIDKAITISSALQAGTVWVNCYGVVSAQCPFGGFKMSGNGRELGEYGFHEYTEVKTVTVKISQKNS

Structure (SMILES) | Potency | activity, negative = inhibition
CSc1nn2c(C)c(C)c(C)nc2c1C#N | inconclusive [inhibitor, partial curve] | 
NC(=S)Cc1nc(-c2ccc(Cl)cc2)cs1 | active: 2 µM | 
Cn1c(N)nc2c(nc(OCc3ccccc3)n2[C@@H]2O[C@H](CO)[C@@H](O)[C@@H]2O)c1=O |  | inactive: 2.4% [at 13.5 µM]
COc1cc(/C=N/n2c(C)nnc2C)cc(OC)c1OC | inconclusive [inhibitor, partial curve] | 
COc1ccc(CCNC(=O)COc2ccc(S(=O)(=O)N3CCCC3)cc2)cc1 | active: 10 µM | 
Cc1c(OCc2nn[nH]n2)ccc2c(-c3ccccc3)cc(=O)oc12 | active: 15.8 µM | 
CC(C)(C)SCCNS(=O)(=O)c1ccc2ccccc2c1 | active: 15 µM | 
CC(C)N1C/C(=C/c2cccnc2)C(=O)/C(=C/c2cccnc2)C1 | inconclusive [inhibitor, single point] | 
COc1ccc(-c2nc3cnccn3c2Nc2ccc(C)cc2)cc1 | inconclusive [inhibitor, single point] | 
CC(=O)c1cc(-c2ccccc2)n(CC(=O)Nc2cccc(C)c2)c1C |  | inactive: -7.3%
O=[N+]([O-])c1ccccc1S(=O)(=O)Oc1ccc(C(=S)N2CCOCC2)cc1 | inconclusive [inhibitor, single point] | 
C/C(N)=C(/C#N)C(=O)CSc1nc2ccccc2c(=O)n1-c1ccc(C)c(Cl)c1 |  | inactive: 3.91%
Cc1ccc(-c2nc3ccc(C(=O)O)cc3nc2-c2ccc(C)cc2)cc1 | inconclusive [inhibitor, partial curve] | 
COc1ccc(N2C(=O)CC(NNc3ncc(Cl)cc3Cl)C2=O)cc1 (centres undefined) | inconclusive [inhibitor, single point] | 
C/C(O)=C/c1nc2ccccc2[nH]c1=O | inconclusive [inhibitor, single point] | 
C=CCSc1nc(C)cc(/C=C\c2ccccc2)c1C#N | inconclusive [inhibitor, partial curve] | 
CCCNC(=O)c1ccc(C2SCC(=O)N2Cc2ccccc2)cc1 (centres undefined) |  | inactive: -3.25%
CCSc1ccc2nnc(-c3ccc(F)cc3)n2n1 | inconclusive [inhibitor, single point] | 
CCc1sc(C(=O)NCc2cc(C)n(C)n2)cc1Br | inconclusive [inhibitor, partial curve] | 
CC(C)NC(=O)CN1CCN(Cc2nc(C(c3ccccc3)c3ccccc3)no2)CC1 |  | inactive: -7.19%
O=C(c1nc2ccccn2c1CN1CCC(Cc2ccccc2)CC1)N1CCCC1 | active: 11.2 µM | 
CC(C)COP(=O)(c1ccc(N(C)C)cc1)C(O)c1ccncc1 (centres undefined) | active: 12.6 µM | 
O=[N+]([O-])c1ccccc1/C=C/C=N/N1CCCCC1 | inconclusive [inhibitor, single point] | 
COc1ccc2cc(CCl)c(Cl)nc2c1 | inconclusive [inhibitor, single point] | 
C/C(=N/NC(=O)c1cccs1)c1cccc(N)c1 | inconclusive [inhibitor, single point] | 

Structure (SMILES) | Potency | activity, negative = inhibition
CCN(C(=O)CN1CCN(S(=O)(=O)c2ccccc2C(F)(F)F)CC1)c1c(N)n(Cc2ccccc2)c(=O)[nH]c1=O |  | inactive: 11.5%
COc1ccc2c(CC(=O)NCc3ccc4c(c3)OCO4)coc2c1 | active: 8.91 µM | 
CCCCC(=O)Nc1ccc(C(=O)OC2CCCCC2)cc1 | inconclusive [inhibitor, partial curve] | 
Cc1cc(C)c(C)c(S(=O)(=O)NC(C(=O)O)C(C)C)c1C (centres undefined) |  | inactive: 1.25%
COc1ccc2c(c1OC)C(=O)N1c3ccccc3SC21 (centres undefined) | inconclusive [inhibitor, single point] | 
O=C(/C=C(\c1ccc(Cl)cc1)n1cncn1)c1ccc(Cl)cc1 | active: 2.24 µM | 
COc1ccc(NC(=O)N2CC[C@@]3(CCCN(C(=O)c4c(C)noc4C)C3)C2)cc1 | inconclusive [inhibitor, single point] | 
Cc1c(Nc2cc(N3CCOCC3)c3nonc3c2[N+](=O)[O-])c(=O)n(-c2ccccc2)n1C |  | inactive: 6.21%
COc1ccc(-c2nc3c(c4c2C[C@H](c2ccccc2)OC4)CN(S(=O)(=O)c2ccc4c(c2)OCCN4C)CC3)c(C)c1 | inconclusive [inhibitor, full curve] | 
CC(=O)c1cccc(NC(=O)Nc2ccc(C(=O)N3CCOCC3)cc2)c1 | inconclusive [inhibitor, single point] | 
CN1C(=O)C2(Oc3ccccc3C3CC(c4ccccc4)=NN32)c2ccccc21 (centres undefined) | active: 25.1 µM | 
CC(C)(C)C(=O)Nc1ccc(-c2cn3ccsc3n2)cc1 |  | inactive: -2.18%
CCCCOc1ccc(/C(O)=C2/C(=O)C(=O)N(CCN(C)C)C2c2ccc(O)c(OC)c2)cc1 (centres undefined) |  | inactive: -0.57%
COc1cccc(C(=O)NC(=O)Nc2cc(C)on2)c1 |  | inactive: 13%
COc1ccc(-n2c(/C=C(\C)O)nc(=O)c3c(C)cc(C)nc32)cc1 | inconclusive [inhibitor, single point] | 
CCc1oc(C(=O)O)cc1CN(CC)CC |  | inactive: 7.27%
O=C(NCCCCc1ccccc1)c1ccc(Br)o1 |  | inactive: -2.09%
O=C(C1=C[C@@H](C2CCCCC2)C[C@@H](OCCCCO)O1)N1CCOCC1 | inconclusive [inhibitor, single point] | 
CCOCCCNC(=O)N[C@H](C(=O)OC)C(C)CC (some centres undefined) |  | inactive: -0.656%
O=C(NNc1cc(Cl)ccc1Cl)c1cccnc1Cl |  | inactive: 2.84%
COC(=O)c1cccc(NC(=O)c2ccc3c(c2)C(=O)N(CC2CCCO2)C3=O)c1 (centres undefined) | active: 1.41 µM | 
Clc1ccc(-c2nnc(NCc3ccccc3)c3ccccc23)cc1 | active: 22.4 µM | 
COc1cccc2c1OC[C@@H](CO)[C@H]2N(C)C(=O)Nc1ccc(Cl)cc1 | inconclusive [inhibitor, single point] | 
CN(C(=S)NC1=CCS(=O)(=O)C1)C1CCCCC1 | inconclusive [inhibitor, single point] | 
